Lines with a small IC50 respond at low doses; fits outside the tested doses are given as limits. AUC, from the same fit, is the share of area under the viability curve across the 256-fold dose range; the more sensitive the line, the further below 1. The top dose, if marked as inferred, comes from the curve model; the source does not state it.
compound: CC1=C(C(=O)Nc2cc3cn[nH]c3cc2F)C(c2ccc(C(F)(F)F)cc2)CC(=O)N1 [GSK429286A]; test: Viability of human cancer cell lines after 72 h of drug (GDSC screen); details: top dose inferred
Method: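 Human cancer cell lines in 384-well plates, medium with 10% serum, drug for 72 h over a 256-fold dose range (nine 2-fold or five 4-fold steps up to the top dose). Adherent lines were fixed and stained with the nucleic acid dye Syto60, suspension lines read with resazurin; signal relative to control wells, capped at 0 and 100%. One two-parameter sigmoid per drug and line, fitted in a mixed model over all curves with the slope shared within a line.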

In order of rising AUC:
1. SR (lymphoid neoplasm, suspension, top dose 20 µM)  0.275
2. IMR-5 (neuroblastoma, adherent, top dose 20 µM)  0.863
3. NK-92MI (lymphoid neoplasm, suspension, top dose 20 µM)  0.874
4. LB831-BLC (bladder, adherent, top dose 20 µM)  0.894
5. 769-P (kidney, adherent, top dose 20 µM)  0.894
6. RPMI-6666 (Hodgkin lymphoma, suspension, top dose 20 µM)  0.9
7. BPH-1 (prostate, adherent, top dose 20 µM)  0.909
8. SW156 (kidney, adherent, top dose 20 µM)  0.927
9. BC-1 (B-cell lymphoma, suspension, top dose 20 µM)  0.932
10. KARPAS-422 (B-cell lymphoma, suspension, top dose 20 µM)  0.941
11. SJRH30 (rhabdomyosarcoma, adherent, top dose 20 µM)  0.944
12. NCI-H810 (large cell lung carcinoma, adherent, top dose 20 µM)  0.955
13. CAKI-1 (kidney, adherent, top dose 20 µM)  0.956
14. SAS (head and neck, adherent, top dose 20 µM)  0.96
15. RPMI-2650 (head and neck, adherent, top dose 20 µM)  0.96
16. TK (B-cell lymphoma, suspension, top dose 20 µM)  0.962
17. NCI-H1703 (lung adenocarcinoma, adherent, top dose 20 µM)  0.964
18. LB647-SCLC (small cell lung carcinoma, semi-adherent, top dose 20 µM)  0.965
19. KMH-2 (thyroid, adherent, top dose 20 µM)  0.967
20. TOV-112D (ovary, adherent, top dose 20 µM)  0.968
21. NCI-H2172 (non-small cell lung carcinoma, adherent, top dose 20 µM)  0.969
22. NCI-H2110 (non-small cell lung carcinoma, adherent, top dose 20 µM)  0.97
23. HeLa (cervix, adherent, top dose 20 µM)  0.97
24. HMV-II (melanoma, adherent, top dose 20 µM)  0.971
25. NCI-H1563 (lung adenocarcinoma, adherent, top dose 20 µM)  0.971
26. L-1236 (Hodgkin lymphoma, suspension, top dose 20 µM)  0.978
27. Saos-2 (osteosarcoma, adherent, top dose 20 µM)  0.981
28. CAL-39 (cervix, adherent, top dose 20 µM)  0.982
29. RCM-1 (large intestine, adherent, top dose 20 µM)  0.982
30. H3255 (lung adenocarcinoma, adherent, top dose 20 µM)  0.982
31. NB10 (neuroblastoma, adherent, top dose 20 µM)  0.982
32. JHH-1 (liver, adherent, top dose 20 µM)  0.983
33. TE-441-T (rhabdomyosarcoma, adherent, top dose 20 µM)  0.984
34. Raji (Burkitt lymphoma, suspension, top dose 20 µM)  0.985
35. VA-ES-BJ (soft tissue, adherent, top dose 20 µM)  0.985
36. 23132-87 (stomach, adherent, top dose 20 µM)  0.985
37. PL4 (pancreas, adherent, top dose 20 µM)  0.985
38. SiHa (cervix, adherent, top dose 20 µM)  0.987
39. PC-14 (lung adenocarcinoma, adherent, top dose 20 µM)  0.987
40. Mo-T (hairy cell leukaemia, suspension, top dose 20 µM)  0.988
41. LB373-MEL-D (melanoma, adherent, top dose 20 µM)  0.989

“KMH-2 (thyroid, adherent, top dose 20 µM)” and “NCI-H1703 (lung adenocarcinoma, adherent, top dose 20 µM)” cannot be ordered by IC50: greater than 20 µM for the first, greater than 20 µM for the second.

“SAS (head and neck, adherent, top dose 20 µM)” and “RPMI-2650 (head and neck, adherent, top dose 20 µM)” cannot be ordered by IC50: greater than 20 µM for the first, greater than 20 µM for the second.

Going from “NK-92MI (lymphoid neoplasm, suspension, top dose 20 µM)” to “LB831-BLC (bladder, adherent, top dose 20 µM)”, the IC50 rises from 17.2 µM to greater than 20 µM.

“CAL-39 (cervix, adherent, top dose 20 µM)” and “NCI-H810 (large cell lung carcinoma, adherent, top dose 20 µM)” cannot be ordered by IC50: greater than 20 µM for the first, greater than 20 µM for the second.

Compared with “SR (lymphoid neoplasm, suspension, top dose 20 µM)”, “NCI-H2172 (non-small cell lung carcinoma, adherent, top dose 20 µM)” is higher in IC50: 0.311 µM for the first, greater than 20 µM for the second.

“Raji (Burkitt lymphoma, suspension, top dose 20 µM)” and “BPH-1 (prostate, adherent, top dose 20 µM)” cannot be ordered by IC50: greater than 20 µM for the first, greater than 20 µM for the second.

“NCI-H2110 (non-small cell lung carcinoma, adherent, top dose 20 µM)” and “VA-ES-BJ (soft tissue, adherent, top dose 20 µM)” cannot be ordered by IC50: greater than 20 µM for the first, greater than 20 µM for the second.

Going from “IMR-5 (neuroblastoma, adherent, top dose 20 µM)” to SiHa (cervix, adherent, top dose 20 µM), the IC50 rises from 12.9 µM to greater than 20 µM.

“TOV-112D (ovary, adherent, top dose 20 µM)” and “SW156 (kidney, adherent, top dose 20 µM)” cannot be ordered by IC50: greater than 20 µM for the first, greater than 20 µM for the second.

HeLa (cervix, adherent, top dose 20 µM) and “23132-87 (stomach, adherent, top dose 20 µM)” cannot be ordered by IC50: greater than 20 µM for the first, greater than 20 µM for the second.

“TE-441-T (rhabdomyosarcoma, adherent, top dose 20 µM)” and “LB647-SCLC (small cell lung carcinoma, semi-adherent, top dose 20 µM)” cannot be ordered by IC50: greater than 20 µM for the first, greater than 20 µM for the second.

“BC-1 (B-cell lymphoma, suspension, top dose 20 µM)” and “RCM-1 (large intestine, adherent, top dose 20 µM)” cannot be ordered by IC50: greater than 20 µM for the first, greater than 20 µM for the second.

“KARPAS-422 (B-cell lymphoma, suspension, top dose 20 µM)” and “PC-14 (lung adenocarcinoma, adherent, top dose 20 µM)” cannot be ordered by IC50: greater than 20 µM for the first, greater than 20 µM for the second.

JHH-1 (liver, adherent, top dose 20 µM) and “SJRH30 (rhabdomyosarcoma, adherent, top dose 20 µM)” cannot be ordered by IC50: greater than 20 µM for the first, greater than 20 µM for the second.

“H3255 (lung adenocarcinoma, adherent, top dose 20 µM)” and “NB10 (neuroblastoma, adherent, top dose 20 µM)” cannot be ordered by IC50: greater than 20 µM for the first, greater than 20 µM for the second.

“LB373-MEL-D (melanoma, adherent, top dose 20 µM)” and “769-P (kidney, adherent, top dose 20 µM)” cannot be ordered by IC50: greater than 20 µM for the first, greater than 20 µM for the second.

“CAKI-1 (kidney, adherent, top dose 20 µM)” and “L-1236 (Hodgkin lymphoma, suspension, top dose 20 µM)” cannot be ordered by IC50: greater than 20 µM for the first, greater than 20 µM for the second.

“HMV-II (melanoma, adherent, top dose 20 µM)” and “Mo-T (hairy cell leukaemia, suspension, top dose 20 µM)” cannot be ordered by IC50: greater than 20 µM for the first, greater than 20 µM for the second.

“RPMI-6666 (Hodgkin lymphoma, suspension, top dose 20 µM)” and “NCI-H1563 (lung adenocarcinoma, adherent, top dose 20 µM)” cannot be ordered by IC50: greater than 20 µM for the first, greater than 20 µM for the second.

“TK (B-cell lymphoma, suspension, top dose 20 µM)” and “Saos-2 (osteosarcoma, adherent, top dose 20 µM)” cannot be ordered by IC50: greater than 20 µM for the first, greater than 20 µM for the second.

“PL4 (pancreas, adherent, top dose 20 µM)” was tested, and the IC50 was greater than 20 µM.
